Drawing on paper PMC4081100, this text covers binding signal for 9 sequences.

The entries are a selection whose mix differs from that of the whole data set. For part of these data: At the low end of the ranking the order means little. Some of the results follow. For part of these data: The source does not settle which construct or isoform was used.

What all share (assay): universal protein binding microarray (PBM)
Holding throughout (details): transcription factors of Arabidopsis thaliana; high values mean tight binding; most listed sequences are background and not binding sites; double strand, one strand shown

One assay concerns the target T1, GST-ANAC092(1-176) (UniProt Q9FKA0).
T1 sequence: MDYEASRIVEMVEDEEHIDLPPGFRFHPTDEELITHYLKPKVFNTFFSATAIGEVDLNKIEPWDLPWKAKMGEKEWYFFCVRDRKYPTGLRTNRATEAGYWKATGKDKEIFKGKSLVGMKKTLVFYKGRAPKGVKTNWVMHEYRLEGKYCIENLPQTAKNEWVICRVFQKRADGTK

In a further assay the target is GST-NTL6(1-168) (UniProt Q9SCK6).
In the next assay the target is T2, GST-ANAC019 NAC domain (UniProt Q9C932).
T2 sequence: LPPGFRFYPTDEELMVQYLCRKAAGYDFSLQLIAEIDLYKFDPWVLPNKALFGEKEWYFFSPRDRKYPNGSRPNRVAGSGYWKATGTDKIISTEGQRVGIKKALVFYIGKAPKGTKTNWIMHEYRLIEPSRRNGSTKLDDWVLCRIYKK

In a further assay the target is T3, GST-ANAC055(1-171) (UniProt Q9LDY8).
T3 sequence: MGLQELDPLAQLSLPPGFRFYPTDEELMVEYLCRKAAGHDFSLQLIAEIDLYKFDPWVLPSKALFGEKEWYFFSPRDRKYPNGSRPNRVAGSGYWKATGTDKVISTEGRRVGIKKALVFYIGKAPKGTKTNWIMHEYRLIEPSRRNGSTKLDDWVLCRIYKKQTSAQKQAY

For another assay, the target named is T4, GST-ATAF1 NAC domain (UniProt Q39013).
T4 sequence: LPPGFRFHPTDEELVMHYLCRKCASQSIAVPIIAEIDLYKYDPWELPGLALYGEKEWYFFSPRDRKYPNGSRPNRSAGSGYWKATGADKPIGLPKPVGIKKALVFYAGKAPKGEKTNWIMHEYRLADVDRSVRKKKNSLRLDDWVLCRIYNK

Assay [1] addresses T5, GST-ANAC092(1-285) full length (UniProt Q9FKA0).
T5 sequence: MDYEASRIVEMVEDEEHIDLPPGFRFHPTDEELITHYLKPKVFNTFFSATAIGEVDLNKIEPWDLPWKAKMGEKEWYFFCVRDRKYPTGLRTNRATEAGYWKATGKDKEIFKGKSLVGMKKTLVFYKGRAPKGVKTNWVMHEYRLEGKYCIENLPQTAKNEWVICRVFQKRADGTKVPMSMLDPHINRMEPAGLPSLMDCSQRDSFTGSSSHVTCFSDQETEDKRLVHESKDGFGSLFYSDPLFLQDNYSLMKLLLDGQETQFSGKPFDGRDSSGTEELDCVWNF

The next assay has as its target T6, GST-NAP(1-166) (UniProt O49255).
T6 sequence: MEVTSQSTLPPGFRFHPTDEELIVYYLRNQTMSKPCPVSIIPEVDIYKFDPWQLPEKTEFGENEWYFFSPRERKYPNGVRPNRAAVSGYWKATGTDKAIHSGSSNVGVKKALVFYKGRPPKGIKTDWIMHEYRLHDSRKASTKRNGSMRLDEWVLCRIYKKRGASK

In the next assay the target is T7, GST-NST2(1-184) (UniProt Q9M274).
T7 sequence: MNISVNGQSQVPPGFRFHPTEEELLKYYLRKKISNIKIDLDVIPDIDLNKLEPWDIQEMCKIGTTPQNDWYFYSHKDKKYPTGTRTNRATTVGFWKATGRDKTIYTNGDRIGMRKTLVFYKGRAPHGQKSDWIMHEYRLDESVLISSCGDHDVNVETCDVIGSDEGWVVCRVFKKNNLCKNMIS

The target of the next assay is T8, GST-NTL8 NAC domain (UniProt Q9XIN7).
T8 sequence: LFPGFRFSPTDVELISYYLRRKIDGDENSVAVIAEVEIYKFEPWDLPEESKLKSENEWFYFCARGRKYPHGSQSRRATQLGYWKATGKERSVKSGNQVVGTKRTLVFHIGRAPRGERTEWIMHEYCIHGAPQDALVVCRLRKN

A further assay deals with T9, GST-SND1(1-203) (UniProt Q9LPI7).
T9 sequence: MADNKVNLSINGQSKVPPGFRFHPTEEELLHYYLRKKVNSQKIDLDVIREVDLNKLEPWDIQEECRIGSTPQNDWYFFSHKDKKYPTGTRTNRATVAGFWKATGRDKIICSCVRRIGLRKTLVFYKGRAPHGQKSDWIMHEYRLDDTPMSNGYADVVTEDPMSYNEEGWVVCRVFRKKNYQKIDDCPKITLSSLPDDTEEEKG

The target of a further assay is T10, GST-VND3 NAC domain (UniProt Q9FH59).
T10 sequence: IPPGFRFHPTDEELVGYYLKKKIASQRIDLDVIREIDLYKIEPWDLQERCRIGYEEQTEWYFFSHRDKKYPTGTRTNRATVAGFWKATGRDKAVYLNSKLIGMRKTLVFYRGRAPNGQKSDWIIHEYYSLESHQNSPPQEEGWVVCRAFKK

Another assay addresses T11, GST-VND7 NAC domain (UniProt Q9C8W9).
T11 sequence: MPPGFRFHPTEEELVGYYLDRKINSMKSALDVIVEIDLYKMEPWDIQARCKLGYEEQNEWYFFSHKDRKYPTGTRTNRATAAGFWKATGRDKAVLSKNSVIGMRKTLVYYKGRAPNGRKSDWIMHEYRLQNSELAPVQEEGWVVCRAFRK

Assay [2] concerns the target T12, GST-VOZ2 (Arabidopsis thaliana) (UniProt Q9SLB9).
T12 sequence: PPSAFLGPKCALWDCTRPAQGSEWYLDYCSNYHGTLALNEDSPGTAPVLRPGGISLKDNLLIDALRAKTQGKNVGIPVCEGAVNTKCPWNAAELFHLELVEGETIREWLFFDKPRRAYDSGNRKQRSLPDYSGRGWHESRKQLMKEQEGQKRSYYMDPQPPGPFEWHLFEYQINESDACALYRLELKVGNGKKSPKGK

In the case of GCTTGACC, the binding signal in the assay with GST-ANAC092(1-176) was 0.0284 E-score; in the assay with GST-NTL6(1-168), -0.052 E-score; in the assay with GST-ANAC019 NAC domain it was -0.122 E-score; with GST-ANAC055(1-171), -0.114 E-score; with GST-ATAF1 NAC domain, -0.154 E-score; in [1], -0.089 E-score. For the same sequence, the binding signal in the assay with GST-NAP(1-166) is -0.0454 E-score; in the assay with GST-NST2(1-184) it was -0.0802 E-score; with GST-NTL8 NAC domain, 0.02 E-score; in the assay with GST-SND1(1-203), -0.0411 E-score; with GST-VND3 NAC domain, -0.161 E-score; in the assay with GST-VND7 NAC domain, -0.0249 E-score. Further, in assay [2], the binding signal is -0.0454 E-score.
AGTCTTCG: the binding signal with GST-ANAC092(1-176) is 0.0396 E-score; in the assay with GST-NTL6(1-168), -0.00642 E-score; in the assay with GST-ANAC019 NAC domain it was -0.0496 E-score; with GST-ANAC055(1-171), -0.0577 E-score; with GST-ATAF1 NAC domain, -0.0171 E-score; in [1] it was -0.0974 E-score. Moreover, the binding signal with GST-NAP(1-166) is -0.222 E-score; with GST-NST2(1-184), -0.0263 E-score; with GST-NTL8 NAC domain it was 0.0456 E-score; with GST-SND1(1-203), -0.0186 E-score; with GST-VND3 NAC domain it was -0.00458 E-score; with GST-VND7 NAC domain, 0.0363 E-score. The sequence further yielded a binding signal in assay [2] of -0.123 E-score.
As to CGCTGACC, the binding signal with GST-ANAC092(1-176) is -0.0824 E-score; in the assay with GST-NTL6(1-168), -0.0487 E-score; with GST-ANAC019 NAC domain, 0.00274 E-score; in the assay with GST-ANAC055(1-171), -0.151 E-score; with GST-ATAF1 NAC domain, -0.122 E-score; in assay [1] it was -0.159 E-score. The binding signal is -0.051 E-score with GST-NAP(1-166); -0.173 E-score with GST-NST2(1-184); 0.024 E-score in the assay with GST-NTL8 NAC domain; -0.0937 E-score in the assay with GST-SND1(1-203); -0.153 E-score with GST-VND3 NAC domain; -0.0342 E-score with GST-VND7 NAC domain. This sequence also registered a binding signal in assay [2] of 0.0216 E-score.
As to CTCTGACC, the binding signal in the assay with GST-ANAC092(1-176) was -0.112 E-score; with GST-NTL6(1-168), -0.0495 E-score; in the assay with GST-ANAC019 NAC domain it was -0.0729 E-score; with GST-ANAC055(1-171), -0.153 E-score; with GST-ATAF1 NAC domain, -0.193 E-score; in [1], -0.197 E-score. The binding signal with GST-NAP(1-166) was -0.088 E-score; with GST-NST2(1-184) it was -0.0647 E-score; with GST-NTL8 NAC domain it was 0.00462 E-score; with GST-SND1(1-203), -0.0615 E-score; in the assay with GST-VND3 NAC domain, -0.148 E-score; with GST-VND7 NAC domain it was -0.0609 E-score. In assay [2], the binding signal is -0.078 E-score.
Take GTCAATGA: the binding signal with GST-ANAC092(1-176) is -0.0541 E-score; with GST-NTL6(1-168), 0.0646 E-score; in the assay with GST-ANAC019 NAC domain, -0.0304 E-score; in the assay with GST-ANAC055(1-171) it was -0.0561 E-score; with GST-ATAF1 NAC domain it was -0.0238 E-score; in assay [1] it was 0.0425 E-score. The binding signal with GST-NAP(1-166) was -0.0799 E-score; in the assay with GST-NST2(1-184), -0.00768 E-score; in the assay with GST-NTL8 NAC domain, -0.0366 E-score; with GST-SND1(1-203) it was 0.0462 E-score; with GST-VND3 NAC domain, 0.0462 E-score; with GST-VND7 NAC domain, -0.0995 E-score. In [2], this sequence returned a binding signal of 0.0283 E-score.
As for CAGGTCAA, the binding signal with GST-ANAC092(1-176) is -0.0316 E-score; with GST-NTL6(1-168) it was 0.0272 E-score; with GST-ANAC019 NAC domain, -0.0122 E-score; with GST-ANAC055(1-171) it was 0.0027 E-score; with GST-ATAF1 NAC domain it was -0.159 E-score; in [1], -0.154 E-score. Also, the binding signal in the assay with GST-NAP(1-166) is -0.00966 E-score; with GST-NST2(1-184), -0.00039 E-score; with GST-NTL8 NAC domain, -0.0545 E-score; in the assay with GST-SND1(1-203) it was -0.137 E-score; with GST-VND3 NAC domain, -0.156 E-score; in the assay with GST-VND7 NAC domain, -0.0374 E-score. In assay [2], this sequence registered a binding signal of -0.0659 E-score.
As for CCGAGTCA, the binding signal with GST-ANAC092(1-176) was -0.2 E-score; with GST-NTL6(1-168), -0.271 E-score; with GST-ANAC019 NAC domain, -0.0927 E-score; in the assay with GST-ANAC055(1-171), -0.184 E-score; with GST-ATAF1 NAC domain, -0.132 E-score; in [1], -0.15 E-score. The binding signal was -0.0387 E-score in the assay with GST-NAP(1-166); -0.187 E-score with GST-NST2(1-184); -0.00411 E-score with GST-NTL8 NAC domain; -0.119 E-score with GST-SND1(1-203); -0.128 E-score with GST-VND3 NAC domain; -0.142 E-score in the assay with GST-VND7 NAC domain. Further, the binding signal in assay [2] was -0.116 E-score.
TGACCTCA: the binding signal was -0.126 E-score with GST-ANAC092(1-176); -0.0831 E-score in the assay with GST-NTL6(1-168); -0.0715 E-score with GST-ANAC019 NAC domain; -0.132 E-score with GST-ANAC055(1-171); -0.0737 E-score with GST-ATAF1 NAC domain; -0.113 E-score in assay [1]. Moreover, the binding signal in the assay with GST-NAP(1-166) was -0.155 E-score; with GST-NST2(1-184), -0.155 E-score; with GST-NTL8 NAC domain, -0.0665 E-score; with GST-SND1(1-203), -0.17 E-score; in the assay with GST-VND3 NAC domain, -0.0627 E-score; in the assay with GST-VND7 NAC domain, 0.000465 E-score. Besides, the binding signal in assay [2] was -0.136 E-score.
CCGCTGAC: the binding signal was -0.0506 E-score with GST-ANAC092(1-176); -0.0896 E-score in the assay with GST-NTL6(1-168); 0.0159 E-score with GST-ANAC019 NAC domain; -0.11 E-score with GST-ANAC055(1-171); -0.0221 E-score in the assay with GST-ATAF1 NAC domain; -0.0768 E-score in assay [1]. Further, the binding signal is -0.0205 E-score in the assay with GST-NAP(1-166); -0.143 E-score in the assay with GST-NST2(1-184); 0.0147 E-score with GST-NTL8 NAC domain; -0.0352 E-score with GST-SND1(1-203); -0.105 E-score in the assay with GST-VND3 NAC domain; -0.0724 E-score with GST-VND7 NAC domain. For the same sequence, the binding signal in assay [2] is -0.0116 E-score.
